Measurements as given in the supplement of paper PMC11417369.
± gives the standard deviation of the averaged measurements. This is one part of the list.

These sequences were tested on PfAP2-G AP2 domain (GST-tagged) (assay: gcPBM binding intensity (ln(normalized median fluorescence intensity)); higher = stronger DNA binding).
How it was run: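 Binding intensity is the highest Masliner-normalised natural-log median intensity over replicate spots in either probe orientation. To obtain it, GST-tagged P. falciparum DNA-binding domains made in E. coli were incubated for 1 h on an Agilent 4 × 180k array of primer-extended double-stranded 36-bp intergenic genomic probes plus negative controls. Detection used Alexa488 anti-GST antibody with scanning at 488 nm.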

Sequence | gcPBM binding intensity (ln)
AAAAAAATTAAACATACACACGTTACTATTTTTATA [CACACA_site5009] | 9.83 ± 0.014
TATAAATATAAAAGGAGTACAAATATATATATATAT [XGTACX_site1386] | 11.5 ± 0.99
AGTTATAATAAAAAATGTACGTATTATCATTAAGAA [XGTACX_site4244] | 11.4 ± 0.76
TTTTTTTTTATAGCTAAACACACATAAGAATATATG [CACACA_site8282] | 10.1 ± 0.085
TTTCATTCTGGTATCACACATTTATTTTCTAGTTTA [CACACA_site4286] | 10.215 ± 0.007
AAAAAAAAAAAAAACACACATACACATATATTTTTA [CACACA_site3893] | 10 ± 0.16
AAAATTGATATATGCACACATATATATATTAAATAT [CACACA_site763] | 9.76 ± 0.028
GGAACTTTTGGAGGTGCATGCGGAGCAATCTTTTCA [TGCATGCA_site454] | 9.855 ± 0.092
TTTATGTAGGAACTAACACACATTGTAAGATTCAGA [CACACA_site1998] | 9.985 ± 0.064
CCCCTTAATTAAAGGAGTACTATTTGTGAATAATAT [XGTACX_site4715] | 11.6 ± 0.94
TTATTAATTTATAAATGTACGAATTTTTTATTTAAC [XGTACX_site7605] | 11 ± 0.69
CATATCAATAATATCACACATATATGTGATTTTATT [CACACA_site5053] | 9.625 ± 0.035
TTTAATATTAATAATTGTACATTTTCATAAATACGC [XGTACX_site2837] | 11 ± 0.54
TATTAATAATTAAGTTGTACATTAATTAATATACTG [XGTACX_site6994] | 11.1 ± 0.54
TTTAAACCTTAATATTGTACGCAAAAAAAAAAAGAA [XGTACX_site3757] | 11.6 ± 1
ATATGCAGAGACTGTTTGCACTTTTTTATTTTATGT [GTGCAC_site9695] | 10.19 ± 0.035
TGAAAAAATATAATTTGTACATATCAGGCAAAAATG [XGTACX_site1824] | 10.9 ± 0.45
CCTAGAAAAAAGAACTGTACATATATATATAAATAT [XGTACX_site1680] | 11.2 ± 0.61
TTAATTGAAACTTATTGTACTTTTTTTTTTTTTTTT [XGTACX_site8162] | 11.6 ± 0.86

Sequence | gcPBM binding intensity (ln)
ATAAATAAAAATAGAACACACATATGTTTTTTTTTT [CACACA_site3556] | 9.6 ± 0.3
AGGACAAGGGTTACATGTACATATATATATATATAT [XGTACX_site901] | 11.1 ± 0.43
AAGTTATTTATATATACACACAAATATAAATAATAT [CACACA_site1228] | 9.97 ± 0.014
ATTATAATTACTCTAGTGCATTATAAATATGAATAA | 9.71 ± 0.13
CTCAAATTTATTAGTGGTACATAACCAAGGAAATAA [XGTACX_site225] | 11.3 ± 0.73
AATGTGAAAACGTGTACACATTTTATTTAATTTATC [CACACA_site5966] | 11.6 ± 0.98
AAAAAATAAAACATATATAATATATAATATATATAT [GTGCAC_negctrl_site447] | 9.38 ± 0.23
AAAAAAATAATAAAAAGTACAAAATGTAGAAAATGT [XGTACX_site5018] | 11.1 ± 0.59
ATAAATTATATTATTGAACACACGTTTGGTAATGTT [CACACA_site2662] | 10.1 ± 0.18
TTTATTAATTTATAGTGTACATATTAATAATATATT [XGTACX_site7949] | 11.3 ± 0.68
ATATATATTATATATTGTACATATTATATTCATTAT [XGTACX_site1766] | 11 ± 0.48
CACAGACACGGACACACACACATATATAATATATAT [CACACA_site4495] | 11.3 ± 0.86
AAGATATGAACATTTTGTACTTAAAAATTCAATATT [XGTACX_site7103] | 11 ± 0.64
TTATATTAATTTTGTTGTACTATTTGTGCATTAAAT [XGTACX_site4790] | 11.2 ± 0.8
GATTATACAAAATATACACACGTGTACAGAAATATT [CACACA_site8305] | 11.5 ± 0.76
ATATATTTATTTATATGTACATATTATATATTATAG [XGTACX_site3371] | 11.2 ± 0.75
TACATACACAAATACACACACAAATACATACACAAA [CACACA_site704] | 10.2 ± 0.41
AAGGATAATATATTAGAACACACATATATATGTAAA [CACACA_site7942] | 9.915 ± 0.007
TTTATATAAAATTATTGTACAGTTTTAATATTTTAA [XGTACX_site6807] | 11.2 ± 0.9

Sequence | gcPBM binding intensity (ln)
TAAACAAATAAATATTGTACATTTTTTCCTTTTAAT [XGTACX_site5594] | 10.8 ± 0.47
ATATTTTATCATGTTTAATATTTATGTGGACATAAA [GTGCAC_negctrl_site275] | 11 ± 0.91
TATTATGTTTATTAAACATGCATATATTTATTTATA [TGCATGCA_site187] | 9.81 ± 0.22
ATCAAAAACATACCTACACACACAATATGTATATAT [CACACA_site9171] | 10.1 ± 0.13
TATTTTATTTTTTTATGTACACAAAAAAAAAAAAAA [XGTACX_site945] | 11.5 ± 1
TCACTATAATAATTTACACACATTTTAAGAAAATGG [CACACA_site5867] | 10 ± 0.18
ACATTTTATATATGTAGTACATATTATAGATAATTT [XGTACX_site1976] | 11.5 ± 0.79
AGTTGGATACGAAGATGTACAATAATAATAATTAAG [XGTACX_site3561] | 11.1 ± 0.65
CTATTATCGGTTCCTACACACAAATATATATGTCTA [CACACA_site3579] | 10.29 ± 0.078
ATATAGTTGTCATATTGTACACTTTAGGGTTGGTTA [XGTACX_site7339] | 11 ± 0.66
GCTTATTAATATCATACACACATAGATATATTTATA [CACACA_site3104] | 10 ± 0.12
AATATATAAATGTTGTGTACTAAGCAATATATTTTA [XGTACX_site2483] | 10.9 ± 0.64
ATTCGTCACATTTTTTGATATATATATATATATATA [CACACA_negctrl_site1785] | 10.2 ± 0.45
TAAAAAATATAAACTGCACACACACTAATAAAGAAA [CACACA_site8119] | 10.18 ± 0.099
GTATATATATAAGAAGAAATATATAAATAAAATATA [CACACA_negctrl_site503] | 9.71 ± 0.2
TACAATCCATATTGTTGTACATTTATAAAATTTACA [XGTACX_site3053] | 11.2 ± 0.76
CAATGGTACATACATACACACACACTAATAAAAAAA [CACACA_site8450] | 10.8 ± 0.69
AGCACGCACAGACACACACACATATTTATATTTATA [CACACA_site6291] | 10.3 ± 0.28
TAATATAGGGGTGTTCAAATAAATTTTGTTATTTTT [CACACA_negctrl_site1203] | 10.3 ± 0.16
